# Laboratory results as given in PubChem BioAssay (NCATS).
# This list was built around the results that the source calls inconclusive (neither active nor inactive); the mix of calls is not that of the screen. Potencies of inconclusive entries are left out as doubtful fits. The source made the active and inactive calls. Calls follow the shape of the dose curve; as a rule, active = well fitted cell-killing curve with a large enough effect; inconclusive = small, poorly fitted or top-dose-only effect, or effect the other way; inactive = no such curve, though single readings can be large or run the other way.
# Assay: Viability qHTS for spleen associated tyrosine kinase inhibitor (SYKi) drug resistant MV4-11 cells (AID 1963824); also: nearly all actives have a fitted effect of over 35% in size
# Conditions: SYKi-resistant MV4-11 viability, CellTiter-Glo, 72 h; series mostly up to 45 µM; viability, % of control: at the top concentration
# Summary of the method: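 SYK inhibitor-resistant MV4-11 AML cells, 500 per well, added to predispensed compounds and incubated 72 hr at 37 C, 5% CO2. Viability measured by CellTiter-Glo luminescence after 10 min at room temperature.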
# Potency is read from the fitted curve at half-maximal effect; tags tell the direction and shape of the fitted curve.
Compound,Potency,"viability, % of control"
O=C(Nc1ccc2[nH]c(=O)oc2c1)C(=O)N1CCC(Cc2ccc(F)cc2)CC1,"inconclusive [cytotoxic, partial curve]",–
CC1=CC2=C(C)C(=O)[C@](C)(O)[C@H](O)C2=CO1,–,inactive: 66.3%
CC1(C)CCC[C@]2(C)C1CC=C(CO)[C@H]2CC/C(=C/CO)CO (stereo partly specified),"inconclusive [cytotoxic, single point]",–
Cc1cc(-c2ccccc2)nnc1NCCN1CCOCC1,–,inactive: 99%
C#CC(C)(CC)OC(=O)c1ccccc1C(=O)O (stereo unspecified),–,inactive: 88.9%
Nc1ncnc2c1c(-c1ccc(Oc3ccccc3)cc1)nn2[C@@H]1CCCNC1,active: 0.259 µM,–
